# ± gives the standard deviation of the averaged measurements. The list shows a part of the results.
# Test system: PfAP2-I AP2 domain 3 (GST-tagged)
# Experiment: gcPBM binding intensity (ln(normalized median fluorescence intensity)); higher = stronger DNA binding
# Method in brief: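 DNA-binding domains from P. falciparum, fused to GST and produced in E. coli, were put on an Agilent 4 × 180k double-stranded probe array for 1 h in 1× PBS holding 1% milk, 0.2 mg/ml BSA, 0.5% salmon testes DNA and 0.03% Triton X-100. Probes were primer-extended, 36 bp long and drawn from intergenic genomic regions, with negative controls included. After Alexa488 anti-GST antibody detection and a 488 nm scan, binding intensity was set as the highest Masliner-normalised natural-log median intensity across replicate spots of either probe orientation.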
row,Sequence,gcPBM binding intensity (ln)
1,TGTCAATCATATAAATGTACATTTTAAATGAGGTGT [XGTACX_site7391],7.94 ± 0.59
2,TTTTATAAATATTTTTGTACACATTTAAATATTATT [XGTACX_site4973],7.86 ± 0.45
3,TTTTCATATATTTATTGTACATATTACATATATAAT [XGTACX_site2425],8.04 ± 0.5
4,AGAGAGAACGGTATAACATGCAATAAATTTCAGAAG [TGCATGCA_site423],7.75 ± 0.76
5,TTTTTTTAATAAAAGTGTACCAAATTATATACACAT [XGTACX_site6811],7.8 ± 0.49
6,ATTTATAAATCAAAGTGTACATATGTTTTATTTTTT [XGTACX_site804],7.82 ± 0.53
7,ATCGGTAATATTAACACACACATTTATTTATATTTA [CACACA_site6638],7.96 ± 0.58
8,TTTTATTATATGGAGGTGCATATATAATAATATAAT [GTGCAC_site9477],10.7 ± 0.71
9,ATGTATGTAATAAAAAGTACATATGTTCATAATAAA [XGTACX_site842],7.86 ± 0.51
10,TTCTTTTTAAATATACTAATTATGTATAAAACAGAA [GTGCAC_negctrl_site131],7.67 ± 0.39
11,TTTTTTTTTTTTTTAACACACATATAAATATTTTTC [CACACA_site6985],8.11 ± 0.49
12,AAATGGAGTTAATATTGTACATATATATATATATAT [XGTACX_site5452],9.33 ± 0.69
13,TTTTTCTATTCCATTCAACACACAAAAATGTATGCT [CACACA_site8268],7.89 ± 0.64
14,AAAGTTTTAAGAAAATGTACATAAGTATACATATAT [XGTACX_site1293],7.61 ± 0.68
15,ATTCTTGTTATATAAGGTACAGAACAAAATATAAAA [XGTACX_site5510],8.04 ± 0.63
16,TTTGGGATAAAACAAAGTACTAACAAAATATATAAT [XGTACX_site8240],7.96 ± 0.63
17,TGCATTTTACTTGTTACACACATATAAAATTAACCA [CACACA_site7387],7.91 ± 0.44
18,TACAAGTATAAATAAGCACACATGTGTATATGTACA [CACACA_site7911],8.15 ± 0.3
19,TTAGAAGGGATTAAAGTGCAAAATAGGATTAGAGTA,10.085 ± 0.007
20,TCTTATTTAATTAAACAAAAGAAAAAGAAAGAAAAG [CACACA_negctrl_site1569],7.71 ± 0.49
21,TTTTTTTTTCCTTCTTGTACATATTATATATACATA [XGTACX_site5988],8.03 ± 0.61
22,TGGAACGTAATAAAATGTACATACGTTTTTCATATG [XGTACX_site6229],7.52 ± 0.64
23,GACAAATTAATCGATTGTACACAATTTGTTTCGTTG [XGTACX_site35],7.83 ± 0.66

row,Sequence,gcPBM binding intensity (ln)
1,AACACATACATATATGCACACATTTTATTCCATTAT [CACACA_site2834],9.46 ± 0.26
2,TTTTTTTTTTTTTGTACATGCAAATATTATGAACAC [TGCATGCA_site571],8.28 ± 0.53
3,TTCACATATATATAACGTACATTATTATTATTCTGA [XGTACX_site6006],7.82 ± 0.42
4,AATATAACTTTTTGCACACTTAATTTTTTTTTTTAA [CACACA_site3365],9.79 ± 0.11
5,TAACAAAAAGCACTTAGTACATATATATATATATAT [XGTACX_site1099],9.33 ± 0.27
6,AGGTAATATACTAAATGTACAGAAAAACGAATTTTT [XGTACX_site2977],7.8 ± 0.85
7,TATATTTATTATAACACACACATATTTATATTATAG [CACACA_site6628],7.76 ± 0.35
8,TTTCTTTTTAAATATATACACACCGGGTGTACATAT [CACACA_site3345],7.88 ± 0.35
9,AATGAAATAATACAATGTACGTTAAAAAAAAATAAA [XGTACX_site7928],7.78 ± 0.59
10,GTATTATTTTATGATGCATGTGTATTTCATATATGC [TGCATGCA_site660],7.74 ± 0.49
11,TAATATCAAACCTATAGTACATAAGGTATAAAAAAG [XGTACX_site3533],7.83 ± 0.57
12,GTTAAGTGTATATATACACACATATGTAATACATGA [CACACA_site3048],8.17 ± 0.41
13,TAAAAATATATGTATACACACATATATATATATATA [CACACA_site3951],9.32 ± 0.51
14,AAAAAAAGTGACTCCTTACACACTTTACATAATTTA [CACACA_site820],7.59 ± 0.51
15,AATATTGAAATAACGCGTACAAAAAAAAGTTATATT [XGTACX_site6559],8.12 ± 0.56
16,TAATTAAAATTATATATTAGAAAAAACATATAAAAC [CACACA_negctrl_site190],7.79 ± 0.64
17,ATATGTAGAATAAAAAAAAAAAAAAAAAAAAAAAAT [CACACA_negctrl_site621],7.61 ± 0.4
18,ATGTTATATTATAAAAGTACATTTTATTTTTATTTA [XGTACX_site4365],7.87 ± 0.44
19,TTAATTTATAAAAACACACACAGGTAAAAAGGTGCA [CACACA_site1177],8.13 ± 0.59
20,ATTTCCTTTTTCTGTTGTACTCATAAAATAATATGT [XGTACX_site7234],8.32 ± 0.42
21,ATTTATTTATTTATATGTACATATATATATATATAT [XGTACX_site339],9.36 ± 0.42
22,GATGGAATCTAATTTACATGCAGTGATATAATAAAT [TGCATGCA_site1031],7.98 ± 0.71
23,TAATAATAACCGTTATGTACACAATTTTGTGAACAT [XGTACX_site8053],7.92 ± 0.18

row,Sequence,gcPBM binding intensity (ln)
1,TACAGACAGAAACACACACACACGCATAAAAAAAAA [CACACA_site1514],8.33 ± 0.52
2,TATACAATATTTATAACACACATATTTATATAAACT [CACACA_site6932],7.79 ± 0.47
3,ACTAAACAATATGTATGTACATATTTTACATATAAT [XGTACX_site3318],7.89 ± 0.4
4,AGAACATTTTCTCAGTGTACTTATATATTTGACATA [XGTACX_site6541],7.7 ± 0.4
5,ACTTCCTATATTTATGCATGCATTTTATTAAAAAAT [TGCATGCA_site747],8.73 ± 0.67
6,ATATATCATGAACCTTGTACGTATATATATATATAT [XGTACX_site239],9.52 ± 0.64
7,ATTAATGATTTTTGTTGTACATTATTAATTTACATT [XGTACX_site544],7.83 ± 0.46
8,ATGCGTATACTAAGAACACACAAGTTACTTGGTGTT [CACACA_site1625],7.49 ± 0.76
9,CATACATACATACATACACACATACATATGTATTTA [CACACA_site5384],8.9 ± 0.47
10,TATTTTATATTTCATTTGTTATTTTTCTTGGTTCTA [CACACA_negctrl_site33],7.6 ± 0.73
11,CAACACTTTCAAAAATGTACGTACAAATGTATTTTA [XGTACX_site6713],7.76 ± 0.38
12,AGTTTCCATATGAGGTGTACATATATAATTTATTAT [XGTACX_site2369],8.02 ± 0.5
13,ACAAAATAAAGACACACACACAAACACAAAAAAATA [CACACA_site7568],7.87 ± 0.21
14,CAAAAATAACGAGTCAAACACACATATATATATATA [CACACA_site2038],9.4 ± 0.35
15,AAAGGGATAACACCAAAAAAAATAAAAATAAAAATA [GTGCAC_negctrl_site680],7.74 ± 0.61
16,TCAAGAATTTTAAAGAGTACATAAAACAATAATATA [XGTACX_site3923],7.63 ± 0.47
17,TTGCAAATATATGGTTGTACTCAAAAAAAAAAAAAA [XGTACX_site6975],8.12 ± 0.52
18,TATGCACCCAGACACACACACACAACTAAAAAATAA [CACACA_site2567],8.58 ± 0.071
19,TTTGTAGATTTTGTAACACACACATATATATACATA [CACACA_site8757],7.71 ± 0.54
20,TCTTTCTATTTATAATGTACTCAAAATTATTCTATA [XGTACX_site4867],7.75 ± 0.68
21,AAAATATAATATATTGCACACAAAAAGTGAATTATT [CACACA_site8489],10 ± 0.62
22,TACCATTATTTTAAGTGTACATACTAATTTATATAT [XGTACX_site6548],7.96 ± 0.4
23,TTTTACCACTAAAAATGTACAAAAAAAAAAAAAAAA [XGTACX_site4226],8.01 ± 0.77

row,Sequence,gcPBM binding intensity (ln)
1,CCTTGCATTTATTATACACACACAAAAAAATATATA [CACACA_site7964],8.73 ± 0.43
2,AAATTGTGTGAAATATATTAATATTATTATTATTAT [TGCATGCA_negctrl_site189],7.74 ± 0.47
3,AGATAGCTATTAAAAAGTACAAAAAAATATATATAT [XGTACX_site6289],8.87 ± 0.057
4,TATTTTATATAAAGGTGTACTTATACAAAAATATAT [XGTACX_site7435],8.14 ± 0.28
5,TATACAGGAATATTTTTACACACTAATAATTATAAA [CACACA_site8477],7.7 ± 0.38
6,TATTTACAACAAATTTAATTATTTTTAACTTATAAA [GTGCAC_negctrl_site259],7.18 ± 0.55
7,ATAAATACAGATATTACACACTTCTTATTCTAAGAA [CACACA_site5640],7.67 ± 0.47
8,TTTTTTTTTTTTGAGTGTACAAGATTGTTGTTCCAA [XGTACX_site6120],8.21 ± 0.85
9,AAATATTTGTGTGGTTGTACTATAATGATAAAAATA [XGTACX_site7703],8.14 ± 0.42
10,TTTTTTCAAATTATTCGATATGTAAAAAAATAAAAT [GTGCAC_negctrl_site241],7.58 ± 0.5
11,GGTTTGAATTTTTAAGTGCATATAACATAAATGAAA,9.86 ± 0.23
12,CATACATACAAACACACACACATATATATATATATA [CACACA_site43],9.21 ± 0.49
13,TTATATTATATATATATTATATATATGTATGCATAA [TGCATGCA_negctrl_site481],7.75 ± 0.34
14,ATCCTCTTTTTAAGTTGTACAGGGTCGAAAAAAAAA [XGTACX_site6852],8.12 ± 0.32
15,GATTATTATTATAAGGGTACAAATATTTAATAAAAA [XGTACX_site7144],7.94 ± 0.61
16,AAAAAAAAATAAAAAAGTACATTCATTTTATAAGAT [XGTACX_site3507],7.66 ± 0.45
17,CATGTCAAAATTATACGTACATATATAAGTTCCATT [XGTACX_site6331],7.79 ± 0.46
18,ATTATATATATATATATATATATATATATATTATAT [CACACA_negctrl_site234],8.37 ± 0.092
19,AATGTAATATAAATATGTACATATAAACTATATATA [XGTACX_site6871],7.68 ± 0.41
20,GTTTTAAAACAAATATGTACACATAATATAGGAAAG [XGTACX_site1803],8.29 ± 0.5
